# Source: the supplement of paper PMC8728848
# This is one part of the list.
# B1: PX9937F-bfa-516-16-516 (Bacteroides fragilis) (protein)
# chain: LDIDPTSSIADSNYWKTEAQFSTFNVGLHALLRECSFNFFLLGEPRADIYGDVPFGGEATQGMERLPFNTINKENTGISNFAGMYKVINQINLMIAKTKETTVLSEAGKNYYLGEAYGMRAYLYFHLLRSWGDVILYLDYTNGASLDLSNLSKAASPAEEVMKQIKEDITASEKGFGSDYSFKYGRYYWSMAATQMLKGEVYLWSGRQMGGGTADYTTAKTALQSIVSNANVSLQDDFSKVFAYNNKDNSEIIFSIRNAKDEYNMWDDRFRQNLVPQQAYMTSTYCNKEGVSFKDLPEGQLNGLIRLQIRYDLYNKAFRDGDTRKDASMTAVYQKQQDGTVKYIAPFCNKYQGVLLDGASQRSFLNDYPIYRYADCLLLLAEAKALLGEDPTAEINQVRERAYGKEFFEANKATLAYPNDKGDFYTDNKYMSGDEDPLEAILKERMREFMFEGKRWYDLRLLGADYVTKRTSAVATRLLWPINESVLTDNPALKQTPGYQN
# Tests used:
# Test in all cases: glycan array binding signal (z-score within array); higher = stronger binding
# Settings in all cases: glycan notation: IUPAC condensed, linker removed
# [1] = biological target: GlcNAc(b1-4)GlcNAc(b1-4)GlcNAc(b1-4)GlcNAc(b1-4)GlcNAc(b1-4)GlcNAc
# Summary of the method: (§1)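 The binding signal is a Z-score computed within each array and averaged over linkers. Arrays of the same protein sequence at different concentrations or buffers were also averaged together. Data originate from 3228 arrays in the Consortium for Functional Glycomics database, kept only where the protein sequence was available.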
# [2] = biological target: GlcNAc(b1-4)[GlcNAc(b1-6)]GalNAc
# Summary of the method: as §1
# [3] = biological target: GlcNAc(b1-6)Gal(b1-4)GlcNAc
# Summary of the method: as §1
# GlcNAc(b1-6)GalNAc = biological target: GlcNAc(b1-6)GalNAc
# Summary of the method: as §1
# [4] = biological target: GlcNAc6S(b1-3)Gal(b1-4)GlcNAc
# Summary of the method: as §1
# Kdn(a2-3)Gal(b1-3)GalNAc = biological target: Kdn(a2-3)Gal(b1-3)GalNAc
# Summary of the method: as §1
# Kdn(a2-3)Gal(b1-3)GlcNAc = biological target: Kdn(a2-3)Gal(b1-3)GlcNAc
# Summary of the method: as §1
# Kdn(a2-3)Gal(b1-4)Glc = biological target: Kdn(a2-3)Gal(b1-4)Glc
# Summary of the method: as §1
# Kdn(a2-3)Gal(b1-4)GlcNAc = biological target: Kdn(a2-3)Gal(b1-4)GlcNAc
# Summary of the method: as §1
# [5] = biological target: Kdn(a2-3)Gal(b1-4)[Fuc(a1-3)]GlcNAc
# Summary of the method: as §1
# Kdn(a2-6)Gal(b1-4)GlcNAc = biological target: Kdn(a2-6)Gal(b1-4)GlcNAc
# Summary of the method: as §1
# [6] = biological target: Man(a1-2)Man(a1-2)Man(a1-3)Man
# Summary of the method: as §1
# [7] = biological target: Man(a1-2)Man(a1-2)Man(a1-6)[Man(a1-3)]Man
# Summary of the method: as §1
# Man(a1-2)Man(a1-3)Man = biological target: Man(a1-2)Man(a1-3)Man
# Summary of the method: as §1
# [8] = biological target: Man(a1-2)Man(a1-3)[Man(a1-2)Man(a1-6)]Man
# Summary of the method: as §1
# [9] = biological target: Man(a1-2)Man(a1-3)[Man(a1-2)Man(a1-6)]Man(a1-6)[Man(a1-2)Man(a1-2)Man(a1-3)]Man
# Summary of the method: as §1
# [10] = biological target: Man(a1-2)Man(a1-3)[Man(a1-2)Man(a1-6)]Man(a1-6)[Man(a1-2)Man(a1-2)Man(a1-3)]Man(b1-4)GlcNAc(b1-4)GlcNAc
# Summary of the method: as §1
# [11] = biological target: Man(a1-2)Man(a1-3)[Man(a1-6)]Man(a1-6)[Man(a1-2)Man(a1-3)]Man(b1-4)GlcNAc(b1-4)GlcNAc
# Summary of the method: as §1
# [12] = biological target: Man(a1-2)Man(a1-6)[Man(a1-3)]Man(a1-6)[Man(a1-2)Man(a1-2)Man(a1-3)]Man
# Summary of the method: as §1
# [13] = biological target: Man(a1-2)Man(a1-6)[Man(a1-3)]Man(a1-6)[Man(a1-2)Man(a1-2)Man(a1-3)]Man(b1-4)GlcNAc(b1-4)GlcNAc
# Summary of the method: as §1
# Man(a1-3)[Man(a1-6)]Man = biological target: Man(a1-3)[Man(a1-6)]Man
# Summary of the method: as §1
# [14] = biological target: Man(a1-3)[Man(a1-6)]Man(a1-6)[Man(a1-2)Man(a1-3)]Man(b1-4)GlcNAc(b1-4)GlcNAc
# Summary of the method: as §1
# [15] = biological target: Man(a1-3)[Man(a1-6)]Man(a1-6)[Man(a1-3)]Man
# Summary of the method: as §1
# [16] = biological target: Man(a1-3)[Man(a1-6)]Man(a1-6)[Man(a1-3)]Man(b1-4)GlcNAc(b1-4)GlcNAc
# Summary of the method: as §1
# [17] = biological target: Man(a1-3)[Man(a1-6)]Man(b1-4)GlcNAc(b1-4)GlcNAc
# Summary of the method: as §1
# [18] = biological target: Man(a1-3)[Man(a1-6)]Man(b1-4)GlcNAc(b1-4)[Fuc(a1-6)]GlcNAc
# Summary of the method: as §1
# Man(a1-6)Man = biological target: Man(a1-6)Man
# Summary of the method: as §1
# Man(b1-4)GlcNAc = biological target: Man(b1-4)GlcNAc
# Summary of the method: as §1
# MurNAc(b1-4)GlcNAc = biological target: MurNAc(b1-4)GlcNAc
# Summary of the method: as §1
# Neu5Ac(a2-3)Gal = biological target: Neu5Ac(a2-3)Gal
# Summary of the method: as §1
# [19] = biological target: Neu5Ac(a2-3)Gal(b1-3)GalNAc
# Summary of the method: as §1
# [20] = biological target: Neu5Ac(a2-3)Gal(b1-3)GalNAc(b1-3)Gal(a1-4)Gal(b1-4)Glc
# Summary of the method: as §1
# [21] = biological target: Neu5Ac(a2-3)Gal(b1-3)GalNAc(b1-4)[Neu5Ac(a2-3)]Gal(b1-4)Glc
# Summary of the method: as §1
# [22] = biological target: Neu5Ac(a2-3)Gal(b1-3)GalNAc(b1-4)[Neu5Ac(a2-8)Neu5Ac(a2-3)]Gal(b1-4)Glc
# Summary of the method: as §1
# [23] = biological target: Neu5Ac(a2-3)Gal(b1-3)GalNAc6S
# Summary of the method: as §1
# [24] = biological target: Neu5Ac(a2-3)Gal(b1-3)GlcNAc
# Summary of the method: as §1
# [25] = biological target: Neu5Ac(a2-3)Gal(b1-3)GlcNAc(b1-2)Man
# Summary of the method: as §1
binder,measurement,setting,value
B1,glycan array binding signal (z-score),[1],-0.318
same,glycan array binding signal (z-score),[2],-0.127
same,glycan array binding signal (z-score),[3],-0.106
same,glycan array binding signal (z-score),GlcNAc(b1-6)GalNAc,-0.129
same,glycan array binding signal (z-score),[4],-0.002
same,glycan array binding signal (z-score),Kdn(a2-3)Gal(b1-3)GalNAc,-0.345
same,glycan array binding signal (z-score),Kdn(a2-3)Gal(b1-3)GlcNAc,-0.309
same,glycan array binding signal (z-score),Kdn(a2-3)Gal(b1-4)Glc,-0.137
same,glycan array binding signal (z-score),Kdn(a2-3)Gal(b1-4)GlcNAc,-0.269
same,glycan array binding signal (z-score),[5],0.281
same,glycan array binding signal (z-score),Kdn(a2-6)Gal(b1-4)GlcNAc,-0.215
same,glycan array binding signal (z-score),[6],-0.273
same,glycan array binding signal (z-score),[7],-0.284
same,glycan array binding signal (z-score),Man(a1-2)Man(a1-3)Man,-0.031
same,glycan array binding signal (z-score),[8],-0.294
same,glycan array binding signal (z-score),[9],-0.328
same,glycan array binding signal (z-score),[10],0.025
same,glycan array binding signal (z-score),[11],-0.046
same,glycan array binding signal (z-score),[12],-0.156
same,glycan array binding signal (z-score),[13],-0.162
same,glycan array binding signal (z-score),Man(a1-3)[Man(a1-6)]Man,-0.14
same,glycan array binding signal (z-score),[14],-0.197
same,glycan array binding signal (z-score),[15],0.315
same,glycan array binding signal (z-score),[16],0.247
same,glycan array binding signal (z-score),[17],-0.19
same,glycan array binding signal (z-score),[18],-0.38
same,glycan array binding signal (z-score),Man(a1-6)Man,-0.038
same,glycan array binding signal (z-score),Man(b1-4)GlcNAc,-0.197
same,glycan array binding signal (z-score),MurNAc(b1-4)GlcNAc,-0.278
same,glycan array binding signal (z-score),Neu5Ac(a2-3)Gal,-0.347
same,glycan array binding signal (z-score),[19],-0.269
same,glycan array binding signal (z-score),[20],-0.351
same,glycan array binding signal (z-score),[21],-0.047
same,glycan array binding signal (z-score),[22],-0.117
same,glycan array binding signal (z-score),[23],-0.104
same,glycan array binding signal (z-score),[24],-0.281
same,glycan array binding signal (z-score),[25],0.046
